We go through 82 compounds from PubChem BioAssay (NCI).

Each structure is given as a SMILES string. Values joined by “and” are separate entries in the source; they are usually repeats but may differ in a detail not shown here. Equal values may be shown once.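 Cells were grown in 96-well plates and exposed to each compound for 48 hours at five concentrations; endpoints were interpolated linearly between bracketing concentrations, or set to the highest concentration if not reached. Here, GI50 denotes the concentration required for 50% inhibition of growth. TGI marks complete inhibition of growth.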

In this experiment the test system is NCI-H322M lung. Kind of experiment: NCI anticancer screen, dose series, 48 h.

`Cc1cc(S(=O)(=O)NC2=NC(c3ccccc3)c3cc(Cl)ccc3N2)c(S)cc1Cl` (configuration not stated) gave a TGI above 100 µM.

The compound `Cc1ccc(Nc2[nH]c(=O)[nH]c(=O)c2C)cc1Cl` yielded a TGI above 100 µM.

In the case of `CCN(Cc1ccccc1Cl)c1ccc(CO)c(Cl)c1`, the GI50 is 7.56 µM and the TGI was determined as 20.8 µM.

The compound `Cc1ccc2c(c1)C1C(CO2)C(c2ccccc2)=NN1c1ccccc1` (configuration not stated) returned a TGI above 100 µM.

With `N#CC(Nc1cccc(C(F)(F)F)c1)c1ccccc1C(F)(F)F` (configuration not stated), the TGI was 15.2 µM.

In the case of `CC1CCCCN1CC(=O)c1ccc2c(c1)Sc1ccccc1O2` (configuration not stated), the TGI was found to be 28 µM.

As to `COc1ccc(-c2nn(-c3cccc(NC(=O)Nc4ccccc4)c3)cc2-c2ccncc2)cc1Cl`, the GI50 was 3 µM and the TGI turned out to be 9.64 µM.

For `COc1cc(C(=O)C2C(=O)c3ccccc3C2C2(O)c3ccccc3CC2C(O)c2cc(OC)c(OC)c(OC)c2)cc(OC)c1OC` (configuration not stated), the TGI was above 100 µM.

`Cc1cc(C)c2c(c1)C1=NCCN1C2(O)c1ccc(Cl)cc1` (configuration not stated) displayed a TGI of 20 µM.

With `CC(C)(CCN=C(N)Nc1ccccn1)c1ccc(C(F)(F)F)cc1`, the GI50 is 15.1 µM and the TGI came out at 28.6 µM.

In turn, `COc1cc(CNC2=NCCC2)cc(OC)c1OC` yielded a TGI above 100 µM.

`COC(=O)C(CC(C)=O)CS(=O)(=O)CC(=O)C(=O)Nc1cccc([N+](=O)[O-])c1` (configuration not stated): the TGI is above 100 µM.

In turn, `Cc1c(/C=N/NC(=S)Nc2ccccc2)c(=O)n(-c2ccccc2)n1C` registered a TGI above 100 µM.

Take `Cc1cc(C)n2c(-c3ccccc3)c(C)cc2n1`: the TGI is above 100 µM.

Turning to `C[N+](C)(CCCCCC[N+](C)(C)CCCN1C(=O)c2cc3ccccc3cc2C1=O)CCCN1C(=O)c2cc3ccccc3cc2C1=O`, the GI50 is above 37.5 µM and the TGI was above 37.5 µM.

`CN(C)CC1CCC/C(=C\c2ccc(OC(=O)/C=C/c3ccccc3)cc2)C1=O` (configuration not stated) showed a TGI of 21.1 µM.

Compound `CC(=O)O[C@H]1C=CC(=O)C(C)CC1C` (some centres not stated) came in with a TGI above 100 µM.

The compound `CSc1nc2c(nc(N)n2C2OC(COC(C)=O)C(OC(C)=O)C(OC(C)=O)C2OC(C)=O)c(=O)n1C` (configuration not stated) displayed a TGI above 100 µM.

`CC(Oc1ccc(OCC2CCCCC2)cc1)C(=O)NCCO` (configuration not stated) yielded a TGI above 100 µM.

Consider `O=C1C(Nc2ccc(Br)cc2)=C(I)C(=O)c2ncccc21`, for which the GI50 was 3.51 µM and the TGI is 9.77 µM.

`C[N+](C)(C)/N=C/c1ccc(O)c(O)c1` showed a TGI above 100 µM.

Take `CC1=C(C(=O)Nc2ccc3[nH]ncc3c2)C(c2ccc(Cl)c(Cl)c2)CC(=O)N1` (configuration not stated): the GI50 was above 25 µM and the TGI was above 25 µM.

Consider `CC1SC2(CCC(c3ccccc3)CC2)N(NC(=O)c2[nH]c3ccc(F)cc3c2-c2ccccc2)C1=O` (configuration not stated), for which the GI50 was 18.4 µM and the TGI is 49.5 µM.

`COc1cccc(C2ON=C(c3ccccc3)N2C23CC4CC(CC(C4)C2)C3)c1` (configuration not stated): the TGI was above 10 µM.

As for `CC[C@@H](C(=O)[C@H](C)[C@H](O)[C@@H](C)[C@H]1O[C@H]([C@@H](CC)C(=O)O)CC[C@H]1C)C1O[C@]2(C=C[C@@H](O)[C@]3(CC[C@@](C)([C@H]4CC[C@](O)(CC)[C@H](C)O4)O3)O2)[C@H](C)C[C@@H]1C` (some centres not stated), the GI50 is 1.87 µM and the TGI was 10.8 µM.

`CCOC(=O)/C(N=Nc1ccc(-n2c(C)nc3ccc(Br)cc3c2=O)cc1)=C(/C)O` registered a TGI above 100 µM.

`Cc1cc(=O)[nH]c2cc(NC(=O)C(CCCN=C(N)N)NC(=O)OCc3ccccc3)ccc12` (configuration not stated) registered a TGI above 100 µM.

`O=c1oc2ccccc2c(O)c1/C=N/C(=S)NCc1ccccc1` gave a TGI above 100 µM.

Turning to `Clc1cc2c(nn1)Nc1ccccc1S2`, the GI50 was above 100 µM and the TGI was above 100 µM.

Regarding `COc1ccc(N2C(=O)c3c(c4[nH]c5ccc(OC)cc5c4c4ccc(C(C)(C)C)cc34)C2=O)cc1`, the TGI was above 100 µM.

Compound `O=C(NNCC(F)(F)F)c1ccncc1` had a TGI above 100 µM.

Compound `N=C(N)SCc1cc(Cl)cc(Cl)c1O` showed a TGI of 57.2 µM.

`CCCC[n+]1c(/C=C\c2c(OC)cc(OC)cc2OC)ccc2ccccc21`: the GI50 was 2.45 µM and the TGI came out at 8.08 µM.

Take `O=C(NNc1ccc(F)cc1)C1CCC(CNS(=O)(=O)c2ccc(Cl)c(Cl)c2)CC1` (configuration not stated): the GI50 was 9.55 µM and the TGI was above 50 µM.

`COC(=O)C1=Cc2cc(OC)c(OC)cc2[C@H](c2ccc(OC)c(OC)c2)C1C(=O)OC` (some centres not stated) had a TGI above 100 µM.

Turning to `CC(C)OP(=O)(OC(C)C)c1ccc2c(c1)OCCOCCOCCOCCO2`, the TGI was above 100 µM.

For the compound `C#CC[C@@H]1C[C@]2(C)[C@H]3CC=C4[C@H]5[C@@H](C)[C@H](C)CC[C@]5(C(=O)NCCCN5CCN(CCCN)CC5)CC[C@@]4(C)[C@]3(C)CC[C@H]2C(C)(C)[C@H]1OC(C)=O`, the GI50 is 1.63 µM and the TGI came out at 3 µM.

The compound `CCOC(=O)C1=C(C)N(Cc2ccccc2)C(=O)C1CC#N` (configuration not stated) showed a TGI above 100 µM.

For `Cc1cc2oc(-c3ccccc3)c(C)c(=O)c2c2c1OC(C)(C)S2`, the TGI was above 100 µM.

For `C1COCCOCCOCCOCCOCCO1.[Cl][Sn]([Cl])([c]1ccccc1)[c]1ccccc1`, the GI50 is 15.7 µM and the TGI is 29.1 µM.

Turning to `COc1cc(/C=C/c2nc(N)nnc2C)cc(OC)c1OC`, the TGI is above 62.1 µM.

On to `CCN(CC)CCOc1ccc(/C=C2\C[C@H]3[C@H]4CC=C5C[C@@H](O)CC[C@]5(C)[C@H]4CC[C@]3(C)[C@H]2O)cc1OC`, for which the GI50 was 6.69 µM and the TGI was 13.7 µM.

As for `NC1=NN(c2ccccc2)C(=O)C1/C(=N\NC(=O)c1cc2ccccc2cc1O)C(=O)Nc1cccc(C(F)(F)F)c1` (configuration not stated), the TGI was above 100 µM.

With `CCCCCCCCCCCCCCCC(=O)N[C@H](/C=C/[C@H](O)CCCCCCCCCCCCC)CO`, the GI50 is above 100 µM and the TGI is above 100 µM.

Turning to `O=C(N=Nc1c(O)[nH]c2ccccc12)c1oc2ccccc2c1CN1CCN(c2ccccc2)CC1`, the GI50 was 3.88 µM and the TGI was found to be 47.4 µM.

With `COc1cc2c(cc1OC)CN1CCCc3cc(OC)c(OC)cc3C1C2` (configuration not stated), the TGI is above 100 µM.

`Nn1c(CCCCCCCCc2nnc(COc3ccccc3)n2N)nnc1COc1ccccc1` registered a TGI above 100 µM.

`C[n+]1c2ccccc2n2c3ccccc3c(NCCc3ccccn3)c(C#N)c21` displayed a TGI of 11.7 µM.

As for `O=S1(=O)NC2CCC3NS(=O)(=O)NC4CCC(N1)N4S(=O)(=O)N23` (configuration not stated), the TGI is above 100 µM.

The compound `CC(=O)C=NCC(=O)O` returned a TGI above 100 µM.

`O=C1C(=O)c2ccccc2C(O)=C1CCCc1ccc(C2CCCC2)cc1`: the GI50 was 8.42 µM and the TGI stood at 43.9 µM.

As for `C/C(=N\NC(=S)N1CCN(C2CCCCCC2)CC1)c1ccccn1`, the GI50 is below 0.001 µM; the TGI was 5.76 µM and 2.05 µM.

The compound `O=C(O)CCNC(=O)c1cc(N(CCBr)CCBr)c([N+](=O)[O-])cc1[N+](=O)[O-]` returned a TGI above 100 µM.

Regarding `Cc1cccc2nc3cccc(C(=O)NCCNCCNCCNC(=O)c4cccc5nc6cccc(C)c6nc45)c3nc12`, the GI50 is below 0.0208 µM and the TGI is above 21.2 µM.

As for `c1ccc(Nc2nc(-c3ccccn3)cs2)nc1`, the GI50 is 0.274 µM.

With `COC(=O)c1ccc2c(c1)C(=O)c1c-2n(C)c(=O)c2cc(OC)c(OC)cc12`, the GI50 was above 50 µM and the TGI is above 50 µM.

`c1ccc(CN2CCC3(CC2)SSC2(CCN(Cc4ccccc4)CC2)SS3)cc1`: the TGI is above 100 µM.

For the compound `CCOC(=O)c1ccc2c(c1)nc(/C=C/c1ccc(Cl)cc1)n2-c1cc(C(C)(C)C)[nH]n1`, the GI50 is 3.68 µM and the TGI was 81.1 µM.

The compound `C[C@]12CCC[C@H](O)[C@H]1C[C@H](CO)CC2` showed a TGI above 100 µM.

`CCOC(=O)CSc1nnc(CSc2nc(-c3ccccc3)c(-c3ccccc3)[nH]2)n1-c1ccccc1` yielded a TGI above 100 µM.

`COC(=O)c1c2c(cc3c1CC1(C3)Cc3cc4c(c(C(C)=O)c3C1)CCC4)C=CC2` (configuration not stated) had a TGI above 31.6 µM.

In turn, `CCOc1ccc2c(C)cc(=O)oc2c1` displayed a TGI above 100 µM.

Turning to `Cc1cc(Cl)ccc1NC(=O)CCCC(=O)C1CCC/C1=N\NC(=O)CC#N` (configuration not stated), the TGI is above 100 µM.

The compound `CSc1ccc(OCC2OC2O)cc1` (configuration not stated) registered a TGI above 100 µM.

`CC(=O)Nc1ccc(-c2nc3ccccc3s2)cc1C` showed a TGI above 100 µM.

For the compound `Cn1c(=O)c2ccc(-c3ccc(Br)cc3)nc2n(C)c1=O`, the TGI was above 100 µM.

In the case of `COC(=O)/C=C(/C(=O)OC)c1cc2ccc3c([nH]c4ccccc43)c(C)c-2c1`, the TGI is 41.5 µM.

`COc1c2c(cc3c1OCO3)C13C=CC(OC)CC1N(CC3)C2` (configuration not stated): the TGI is above 100 µM.

Turning to `Cc1[nH]n(C(=N)N)c(=O)c1CCO`, the TGI is above 100 µM.

`CC(=O)Oc1c2c(c(CC=C(C)C)c3c1C(=O)C1=C[C@@H]4CC5C(C)(C)OC(C/C=C(/C)C(=O)O)(C4=O)[C@@]15O3)OC(C)(CCC=C(C)C)C=C2` (some centres not stated) came in with a TGI of 1.64 µM.

For `N#CCOc1ccc(/C=C/C(=O)c2ccc(Cl)cc2)cc1`, the TGI is above 100 µM.

Consider `CCCCc1ccc(-n2sc3ncc([N+](=O)[O-])cc3c2=O)cc1`, for which the TGI was 46.1 µM.

For the compound `C=C1COC(O)(C2OCOC(C3CC(=O)NC(=O)C3)C2O)C1C` (configuration not stated), the GI50 is 0.00302 µM; the TGI was 0.0369 µM and 0.0555 µM.

Consider `CCC(C)[C@H](NC(=O)NC(=O)NC(=O)CI)C(=O)OC` (some centres not stated), for which the GI50 was above 100 µM and the TGI is above 100 µM.

As to `CCCCCCCCCCC/C=C\C[C@H](O)C/C=C1/C(=O)C=C[C@@H]1C/C=C\CCCC(=O)OC`, the GI50 is 4.3 µM and the TGI is 15.9 µM.

With `O=C(c1ccco1)c1c(C(F)(F)F)nc2ccc(C(F)(F)F)cc2[n+]1[O-]`, the GI50 is 44.5 µM and the TGI is above 100 µM.

In turn, `OC(c1cc2ccccc2[nH]1)C1(c2cccnc2)SCCCS1` (configuration not stated) had a TGI above 100 µM.

As for `CC(C)(C)OC(=O)NCCC(=O)NC1(c2cc3ccccc3s2)CCCCC1`, the TGI turned out to be 47.5 µM.

Compound `CCCCCCCNC(P(=O)(O)O)P(=O)(O)O` showed a TGI above 100 µM.

For `Cc1c(-c2ccccc2)c(C#N)c2nnn(C3CCCCC3)c(=O)n12`, the TGI is above 100 µM.

On to `COC(CC1(/C=C/O[Si](C(C)C)(C(C)C)C(C)C)C(=O)N(COCC[Si](C)(C)C)c2ccccc21)OC` (configuration not stated), for which the TGI was above 100 µM.

On to `O=C1C(Cl)C2(CC(/C=C/c3ccccc3O)=NN2c2cccc(S(=O)(=O)O)c2)N1c1nc2ccccc2s1` (configuration not stated), for which the TGI was above 100 µM.
